Experiment [1] concerns the target T1, FLAG-tagged Psy3 (S. cerevisiae) (UniProt Q12318).
T1 sequence: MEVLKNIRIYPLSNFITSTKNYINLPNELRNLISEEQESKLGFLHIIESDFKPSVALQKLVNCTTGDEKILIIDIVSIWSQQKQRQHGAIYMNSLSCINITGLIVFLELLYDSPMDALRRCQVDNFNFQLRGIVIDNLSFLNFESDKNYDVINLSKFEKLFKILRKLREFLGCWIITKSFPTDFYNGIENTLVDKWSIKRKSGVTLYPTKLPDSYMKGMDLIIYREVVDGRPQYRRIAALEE
The experiment can be described thus: tandem affinity co-purification + SEC; co-expressed in E. coli; Ni-NTA (His6-Shu1), amylose (MBP-Shu2, TEV release), anti-FLAG (FLAG-Psy3), SuperDex 200 in 150 mM KCl, 4 °C.

Sequences of proteins named here, by UniProt entry; tags and fusion partners are left off.
UniProt P25454: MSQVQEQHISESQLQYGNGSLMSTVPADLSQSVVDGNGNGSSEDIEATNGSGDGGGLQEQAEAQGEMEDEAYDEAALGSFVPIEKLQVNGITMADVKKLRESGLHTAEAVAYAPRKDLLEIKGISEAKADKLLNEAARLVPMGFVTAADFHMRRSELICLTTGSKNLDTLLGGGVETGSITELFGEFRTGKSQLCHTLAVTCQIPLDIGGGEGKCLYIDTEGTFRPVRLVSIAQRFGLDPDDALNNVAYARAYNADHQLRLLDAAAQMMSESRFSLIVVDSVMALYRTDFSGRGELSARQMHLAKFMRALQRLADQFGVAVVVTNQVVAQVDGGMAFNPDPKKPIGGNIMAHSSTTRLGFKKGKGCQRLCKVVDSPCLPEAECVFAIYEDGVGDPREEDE

Experiment [2] addresses T2, (His)6-tagged Shu1 (S. cerevisiae) (UniProt P38751).
T2 sequence: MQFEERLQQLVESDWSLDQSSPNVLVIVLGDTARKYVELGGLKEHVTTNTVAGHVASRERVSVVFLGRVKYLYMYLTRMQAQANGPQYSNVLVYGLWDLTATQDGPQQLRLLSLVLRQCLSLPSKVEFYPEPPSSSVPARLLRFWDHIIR
Described as above.

The target of experiment [3] is T3, (His)6-tagged Rad55 (S. cerevisiae) (UniProt P38953).
T3 sequence: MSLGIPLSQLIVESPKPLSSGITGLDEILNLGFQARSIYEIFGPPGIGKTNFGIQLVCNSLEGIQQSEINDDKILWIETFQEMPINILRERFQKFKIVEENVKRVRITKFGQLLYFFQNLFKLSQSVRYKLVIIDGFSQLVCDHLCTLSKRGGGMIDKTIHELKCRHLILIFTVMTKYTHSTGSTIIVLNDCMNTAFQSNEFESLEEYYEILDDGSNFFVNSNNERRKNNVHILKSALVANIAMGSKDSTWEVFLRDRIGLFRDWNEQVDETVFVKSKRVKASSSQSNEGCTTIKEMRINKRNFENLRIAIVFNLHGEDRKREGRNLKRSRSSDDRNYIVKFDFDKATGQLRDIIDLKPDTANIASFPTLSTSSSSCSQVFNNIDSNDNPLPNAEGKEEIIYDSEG
The experiment can be described thus: tandem affinity co-purification + SEC; co-expressed in yeast; Ni-NTA (His6-Rad55), anti-FLAG (FLAG-Rad57), Mono Q, SuperDex 200 in 300 mM KCl, with ATP and Mg2+, 4 °C.

The target in experiment [4] is Rad51 (S. cerevisiae) (UniProt P25454). Briefly: pull-down; pull-down with Rad51; set-up only in Supplementary Fig. 2b; also with Csm2–Psy3 added to Rad55–Rad57 and Rad51; both purified.
Experiment [5] concerns the target Rad51 (yeast two-hybrid fusion) (S. cerevisiae) (UniProt P25454). Briefly: two-hybrid; diploid yeast with AD and BD plasmids, growth on SC-LEU-TRP-HIS, 30 °C, 2 days; wild-type cells (Rad52–Rad55 also in csm2Δ cells).
Experiment [6] has as its target T4, Rad55 (yeast two-hybrid fusion) (S. cerevisiae) (UniProt P38953).
T4 sequence: T3 sequence
The description is as above.

In experiment [7] the target is T5, Psy3 (yeast two-hybrid fusion) (S. cerevisiae) (UniProt Q12318).
T5 sequence: T1 sequence
The description is as above.

Experiment [8] deals with T6, MBP-tagged Shu2 (S. cerevisiae) (UniProt P38957).
T6 sequence: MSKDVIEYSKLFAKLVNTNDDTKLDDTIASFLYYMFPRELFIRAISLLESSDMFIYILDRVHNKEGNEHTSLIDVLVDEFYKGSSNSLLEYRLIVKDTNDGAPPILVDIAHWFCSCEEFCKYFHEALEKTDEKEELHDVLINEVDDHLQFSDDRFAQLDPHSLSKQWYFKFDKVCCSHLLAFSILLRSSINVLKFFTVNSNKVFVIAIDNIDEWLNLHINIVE
The experiment can be described thus: tandem affinity co-purification + SEC; co-expressed in E. coli; Ni-NTA (His6-Shu1), amylose (MBP-Shu2, TEV release), anti-FLAG (FLAG-Psy3), SuperDex 200 in 150 mM KCl, 4 °C.

Substitutions are numbered along the chain they refer to. Names may count otherwise. Results are given in words; binding and its absence hold for the method and conditions named. Some results given as binding are weak or reduced against the parent protein; the word gives no strength. For some of these results: Where a sequence is shown, tags or fusion partners need not be part of it.

B1: (His)6-tagged Shu1 (protein, UniProt P38751 1-150)
chain: T2 sequence
Turning to B1, the binding entry in experiment [1] was “binds”.

B2: MBP-tagged Shu2 (protein, UniProt P38957 1-223)
chain: T6 sequence
With B2, the binding result in experiment [2] and in experiment [1] was “binds” each time.

B3: FLAG-tagged Rad57 (protein, UniProt P25301 1-460)
chain: MPRALSIKFDNTYMDLYDELPESKLLYDEEFSYLLDAVRQNGVCVVDFLTLTPKELARLIQRSINEVFRFQQLLVHEYNEKYLEICEKNSISPDNGPECFTTADVAMDELLGGGIFTHGITEIFGESSTGKSQLLMQLALSVQLSEPAGGLGGKCVYITTEGDLPTQRLESMLSSRPAYEKLGITQSNIFTVSCNDLINQEHIINVQLPILLERSKGSIKLVIIDSISHHLRVELQNKSFRESQENKNYLDRMAEKLQILAHDYSLSVVVANQVGDKPLANSPVAHRTYVTDYDYQLGWLVGWKNSTILYRQMNSLLGASSNNDEILSDDEDYMLIERVMSTVNDRNYDFFSKKKPPIIENKTVERNSSSPISRQSKKRKFDYRVPNLGLTWSNHVSTRILLQKSFKASTIIQRGEAHLYKGGDSASFWQVKRTMKVVYSTFAKPGQIAYQITKRGIETA
As for B3, in experiment [3], the binding entry is “binds”.

B4: Csm2–Psy3 heterodimer (complex, UniProt P40465 1-213; Q12318 1-242)
chain 1: MEYEDLELITIWPSPTKNKLCQFIKQNLSKEHVVTQLFFIDATSSFPLSQFQKLVPPTLPENVRIYENIRINTCLDLEELSAITVKLLQILSMNKINAQRGTEDAVTEPLKIILYINGLEVMFRNSQFKSSPQRSHELLRDTLLKLRVMGNDENENASIRTLLEFPKEQLLDYYLKKNNNTRTSSVRSKRRRIKNGDSLAEYIWKYYADSLFE
chain 2: T1 sequence
For B4, the binding entry in experiment [4] is “binds weakly”.

B5: csm2–F46A (yeast two-hybrid fusion) (protein, UniProt P40465 1-213)
chain: B4 chain 1 with F46A
For the molecule B5, the binding result is “no binding” in experiment [5], “no binding” in experiment [6] and “binds” in experiment [7].

B6: Strep-tagged csm2–F46A (protein, UniProt P40465 1-213)
chain: B4 chain 1 with F46A
Regarding B6, the binding entry in experiment [2], in experiment [8] and in experiment [1] was “binds” in each case.

B7: Strep-tagged Csm2 (protein, UniProt P40465 1-213)
chain: B4 chain 1
For the molecule B7, the binding entry in experiment [2], in experiment [8] and in experiment [1] was “binds” throughout.

B8: Csm2 (yeast two-hybrid fusion) (protein, UniProt P40465 1-213)
chain: B4 chain 1
As for B8, the binding entry in experiment [6] and in experiment [7] was “binds” throughout.

Source of the values: paper PMC4525180.
